{
  "source": "paper PMC4336329",
  "about": "(PLoS ONE, 2015)",
  "note": "Among all 310,000 compounds or so, about 2,200 (0.71%) showed an effect of 50% or more. The effect is printed as a negative number. Some of the results follow.",
  "data": [
    {"target": "human ether-à-go-go-related gene (hERG) potassium channel (human, UniProt Q12809)", "sequence (Q12809 whole entry, looked up)": "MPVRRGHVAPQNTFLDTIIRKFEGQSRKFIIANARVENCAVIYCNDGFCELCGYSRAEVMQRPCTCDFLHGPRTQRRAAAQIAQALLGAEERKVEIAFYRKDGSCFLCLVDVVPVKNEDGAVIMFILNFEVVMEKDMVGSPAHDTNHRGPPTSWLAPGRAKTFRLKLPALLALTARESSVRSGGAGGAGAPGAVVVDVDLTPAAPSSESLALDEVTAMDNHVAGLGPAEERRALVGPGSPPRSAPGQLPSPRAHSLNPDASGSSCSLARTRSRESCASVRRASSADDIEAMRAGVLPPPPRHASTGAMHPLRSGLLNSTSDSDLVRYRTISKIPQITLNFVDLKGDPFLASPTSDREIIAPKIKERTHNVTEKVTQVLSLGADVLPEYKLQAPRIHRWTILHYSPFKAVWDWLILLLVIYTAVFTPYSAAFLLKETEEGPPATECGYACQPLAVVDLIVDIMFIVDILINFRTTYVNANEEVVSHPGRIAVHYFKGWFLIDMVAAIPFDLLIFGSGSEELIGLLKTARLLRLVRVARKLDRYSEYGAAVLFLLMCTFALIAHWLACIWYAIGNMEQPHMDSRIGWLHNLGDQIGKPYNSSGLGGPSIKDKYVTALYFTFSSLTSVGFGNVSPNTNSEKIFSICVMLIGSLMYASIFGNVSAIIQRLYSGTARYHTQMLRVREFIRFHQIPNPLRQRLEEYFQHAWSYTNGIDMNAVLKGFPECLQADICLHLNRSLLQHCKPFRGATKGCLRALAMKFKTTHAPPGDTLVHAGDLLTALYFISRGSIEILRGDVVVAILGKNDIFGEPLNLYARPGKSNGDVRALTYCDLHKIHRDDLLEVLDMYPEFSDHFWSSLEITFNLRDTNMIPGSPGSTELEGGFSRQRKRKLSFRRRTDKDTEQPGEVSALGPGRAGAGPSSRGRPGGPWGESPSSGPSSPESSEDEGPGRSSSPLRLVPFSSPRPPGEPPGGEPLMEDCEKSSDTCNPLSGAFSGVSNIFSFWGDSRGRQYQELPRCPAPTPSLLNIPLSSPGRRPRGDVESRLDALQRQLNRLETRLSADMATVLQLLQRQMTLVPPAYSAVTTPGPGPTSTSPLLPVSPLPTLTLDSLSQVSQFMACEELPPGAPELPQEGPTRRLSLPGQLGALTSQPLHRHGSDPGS", "assay": "primary screen, population patch clamp on CHO cells stably expressing hERG", "units": {"hERG current change (%, negative = inhibition) at 1uM": "%"}, "values": [
      {"molecule": "CCCn1nc(C(=O)NC2CC2)c2ccccc2c1=O", "hERG current change (%, negative = inhibition) at 1uM": 1.3},
      {"molecule": "CC(NC(=O)C12CC3CC(CC(C3)C1)C2)c1ccc2c(c1)OCCO2", "note": "(stereo not shown)", "hERG current change (%, negative = inhibition) at 1uM": 12.1},
      {"molecule": "CC(C)(C)OC(=O)N1CCC(C(=O)N2CCOCC2)CC1", "hERG current change (%, negative = inhibition) at 1uM": 13.7},
      {"molecule": "COc1ccc(Nc2ccc(S(=O)(=O)N3CCCCC3)cc2[N+](=O)[O-])cc1Cl", "hERG current change (%, negative = inhibition) at 1uM": 1.66},
      {"molecule": "Cc1cccc2nc(CSc3ncccc3C(=O)O)cn12", "hERG current change (%, negative = inhibition) at 1uM": 8.73},
      {"molecule": "Cc1ccc(-n2nnnc2SC(C)C(N)=O)c(C)c1", "note": "(stereo not shown)", "hERG current change (%, negative = inhibition) at 1uM": 9.97},
      {"molecule": "CCn1cc(C(=O)NC(C)CCc2ccccc2)c(=O)c2cc(S(=O)(=O)N(C)C)ccc21", "note": "(stereo not shown)", "hERG current change (%, negative = inhibition) at 1uM": 5.29},
      {"molecule": "N#C/C(=C\\c1ccc([N+](=O)[O-])cc1)C(=O)Nc1ccccc1O", "hERG current change (%, negative = inhibition) at 1uM": -0.468},
      {"molecule": "Cc1sc(NC(=O)c2cccs2)c(C(=O)OC(C)C)c1C", "hERG current change (%, negative = inhibition) at 1uM": 14.5},
      {"molecule": "COc1ccccc1-c1noc(CCC(=O)Nc2ccccc2Cl)n1", "hERG current change (%, negative = inhibition) at 1uM": 11.8},
      {"molecule": "Cl.Nc1nc(C2C(=O)CCCC2=O)cs1", "hERG current change (%, negative = inhibition) at 1uM": 7.78},
      {"molecule": "Cc1ccc(C(=O)N/C(=C/c2ccc(-c3ccc(Br)cc3)o2)C(=O)NC2CCS(=O)(=O)C2)cc1", "note": "(stereo not shown)", "hERG current change (%, negative = inhibition) at 1uM": 3.65},
      {"molecule": "CCn1c(NC(=O)c2nn(C)cc2Br)nc2ccccc21", "hERG current change (%, negative = inhibition) at 1uM": -0.186},
      {"molecule": "Cc1nc2ccccc2c(=O)n1NC(=O)c1ccccc1F", "hERG current change (%, negative = inhibition) at 1uM": 6.71},
      {"molecule": "Cc1ccccc1C(=O)NCC(=O)Nc1ccc(C)c(S(=O)(=O)N2CCCCCC2)c1", "hERG current change (%, negative = inhibition) at 1uM": 10.5},
      {"molecule": "CNC(=O)c1cc2cc(Cl)cc(OC)c2oc1=O", "hERG current change (%, negative = inhibition) at 1uM": 8.18},
      {"molecule": "COc1ccc(NC(=O)NCCCN2CCCCC2C)cc1", "note": "(stereo not shown)", "hERG current change (%, negative = inhibition) at 1uM": 0.473},
      {"molecule": "CC(C)(CO)NC(=O)c1ccc2c(c1)C(=O)c1ccccc1-2", "hERG current change (%, negative = inhibition) at 1uM": -0.329},
      {"molecule": "CC(C)[C@H]1C=C(C(=O)O)O[C@@H](OCc2ccc(CO)cc2)C1", "hERG current change (%, negative = inhibition) at 1uM": 9.72},
      {"molecule": "O=C(NC(=S)Nc1ccc2oc(=O)ccc2c1)c1ccco1", "hERG current change (%, negative = inhibition) at 1uM": 14.7},
      {"molecule": "Cc1ccc(-c2nc(CSCC(=O)N3CCN(c4ccccn4)CC3)c(C)o2)cc1", "hERG current change (%, negative = inhibition) at 1uM": 1.44},
      {"molecule": "COC(=O)c1ccc(COc2ccc(-c3nnn(CC(=O)NC(C)(C)C)n3)cc2)cc1", "hERG current change (%, negative = inhibition) at 1uM": 6.04},
      {"molecule": "O=C(Nc1ccc(Oc2ccccc2)cc1)C1CCN(c2ncccn2)CC1", "hERG current change (%, negative = inhibition) at 1uM": 4.45},
      {"molecule": "Cc1ccc(-c2oc3ccccc3c(=O)c2OCC(=O)O)cc1", "hERG current change (%, negative = inhibition) at 1uM": 12},
      {"molecule": "Cc1nn(CC(=O)N(C)Cc2ccccc2)c(=O)c2cccn12", "hERG current change (%, negative = inhibition) at 1uM": 13.9}
    ]}
  ]
}
